The source of these data is the RNAGym collection of RNA variant scans (doi:10.7554/elife.90254).

First the molecules themselves.
B1: LINE1-mini (parent)
chain: GGCAGAGCUCAACACAGCGUGGCAAAGUGGCUGUGGCUAGACUGCC

The source gives no read counts; variants with many changes may rest on few reads.

Variants of B1 are the subject of this data set. The data set is described as follows: self-cleavage, relative activity (ratio to wild type); higher = more cleavage; in vitro, sequencing; the parent is a self-cleaving ribozyme.
Consider GGCAUAGCUCAACACAGCGUCGCAAAGUGGCUGUGGCUUGACGGCC [G5U G21C A39U U43G], for which the self-cleavage is 0.25.

As for GGCAUAGCUCAACACAGUGUGGCCAAGCGGCUGAGGCUACACUGCC [G5U C18U A24C U28C U34A G40C], the self-cleavage was found to be 0.01.

For GGCAUAGCUCAACACAGCGUGGCAAAGUGGCUGUGGAUAGACUACC [G5U C37A G44A], the self-cleavage amounted to 0.06.

With GGCAUAGCUUAACACAGCCUGGAAAAGUGGUUCUGGCUAGACUGCC [G5U C10U G19C C23A C31U G33C], the self-cleavage was found to be 0.01.

As to GGCAUAGCUCAACACAGCGUGGGAAAGUCGCGGUGGCUAGACUGCC [G5U C23G G29C U32G], the self-cleavage came out at 0.

For the variant GGCAUAGCUUAACACACCGUGGCCAAGUGUCUGUGGCUAGACUGCC [G5U C10U G17C A24C G30U], the self-cleavage worked out at 0.02.

GGCAUAACUCGACACAGCGAGACAAAGUGGCUGUGGCUAGACUGCC [G5U G7A A11G U20A G22A]: the self-cleavage is 0.01.

Consider GGCAUAACUCAACACAGCGUGGCAAAGUGGAUGUGGCUAGACUCCC [G5U G7A C31A G44C], for which the self-cleavage was 0.06.

Regarding GGCAUAGCUCAACACACCGUGGCAAAGUGGCUGUGUCUAGACUGCC [G5U G17C G36U], the self-cleavage amounted to 0.04.

Regarding GGCAUAAAUCAACACAGCGUGGGAAAUUGGCUGGGGCUAGACUGCC [G5U G7A C8A C23G G27U U34G], the self-cleavage was 0.07.

Turning to GGCAUAGCUCAACACAGCGUGACAAAGUGGCUGUGGCUGGACUGCC [G5U G22A A39G], the self-cleavage was 0.04.

As to GGCAUAGCUCAACACAGCGUUGCAAAGUUGCUGUGGCUAGACUGCU [G5U G21U G29U C46U], the self-cleavage turned out to be 0.07.

Consider GGCAUAGCUGAACACAGCGUUGCAAAGUGGCUGUGGCUAGACUGCC [G5U C10G G21U], for which the self-cleavage was found to be 0.01.

Take GGCAUAGCUCAACACAUCGUGACACAGUGGCUGUGGCUAGACUGCC [G5U G17U G22A A25C]: the self-cleavage was 0.01.

As for GGCAUAGCUCAACACAACGUGGCAAAGUGGCUGUGGCUAGUCUGCA [G5U G17A A41U C46A], the self-cleavage stood at 0.03.

As to GGCAUAGCUCAACACAGCAUGGCAAAGUGGCUGUGGCUAUACUGCC [G5U G19A G40U], the self-cleavage came out at 0.06.

In the case of GGCAUAGCUCAACACAGCGUGGAAAAGUGGCUAUGGAUAGACUGCC [G5U C23A G33A C37A], the self-cleavage came out at 0.04.

Turning to GGCAUAGCUCAACACAGAGUGGCAAAGUGGCUGUGGCUAGAGUGCC [G5U C18A C42G], the self-cleavage turned out to be 0.02.

Take GGCAUAGCUCAACACAGCGUGGGAAAGUGGCUGUAGCUAGACUGCC [G5U C23G G35A]: the self-cleavage was 0.07.

Consider GGCAUAGCUCAACACAGUGUGACAGAGAGGUUGUGGCUAGACUCCC [G5U C18U G22A A25G U28A C31U G44C], for which the self-cleavage amounted to 0.01.

GGCAUAUGUCCACACAGCGUGGCAAAGAGGCUGUGGCUAGACUGUC [G5U G7U C8G A11C U28A C45U]: the self-cleavage was found to be 0.02.

GGCAUAGCUCAACACAGCGUAGCAAAGUCGCUUUCACUAGACUGCC [G5U G21A G29C G33U G35C G36A]: the self-cleavage was found to be 0.04.

With GGCAUAGCUCAACACACCGUGGCAAAGUGGCUGUUGCUAGACUGCC [G5U G17C G35U], the self-cleavage worked out at 0.02.

On to GGCAUAACUCAACACAGCGUGGCAAAGUGGCUGUUGCUAGACUGCC [G5U G7A G35U], for which the self-cleavage stood at 0.87.

On to GGCAUAGCUCAAAACAGCGUGGCAAAGUGUCUGUGGCUACACUGCC [G5U C13A G30U G40C], for which the self-cleavage came out at 0.04.

Regarding GGCAUAGCUCAAUACAGCGUGGAAAAGUGGCUGGGGCUAGACUGCC [G5U C13U C23A U34G], the self-cleavage worked out at 0.08.

Consider GGCAUAGCUGAACACAGCGUGGCAAACUGGCUGUGGCUAGACUGCC [G5U C10G G27C], for which the self-cleavage was 0.02.

On to GGCAUAUCUCAACACAGCGUGCUAAAGUGGCUGUCGCUAGACUGCC [G5U G7U G22C C23U G35C], for which the self-cleavage was determined as 0.07.

Turning to GGCAUAGCUCAACACACCGUGGAUAAGAGGCUGUGGUUAGACUGAC [G5U G17C C23A A24U U28A C37U C45A], the self-cleavage is 0.02.

GGCAUAGCUCAACACAACGUGGCUAAGUGGCUGUGUCUAGACUGCC [G5U G17A A24U G36U]: the self-cleavage was 0.03.

Take GGCAUAUCUCAACACAACGUGGCAAAGUAGCUGUGGCUAGACUGCC [G5U G7U G17A G29A]: the self-cleavage was 0.09.

On to GGCAUAGCUCAACACACCGUGGCAAAGUGGCUGUGGCAAGAAUGCC [G5U G17C U38A C42A], for which the self-cleavage was found to be 0.29.

For the variant GGCAUAGCUUAACACAGAGUGGCAAAGUGGCUGAGGCUAGACUGCC [G5U C10U C18A U34A], the self-cleavage worked out at 0.02.

On to GGCAUAGCUCAACACAGCUUGGUAAAGUGGCUGUGGCAAGACUGCC [G5U G19U C23U U38A], for which the self-cleavage is 0.03.

For GGCAUAGCUCAACACAUCGUAGCAAAGUGGCUGUGGCUAGACUGCC [G5U G17U G21A], the self-cleavage was found to be 0.06.

Turning to GGCAUAGCUCAACACACCGUGGCAAAGUGGCUGUGGCUGGACUGCC [G5U G17C A39G], the self-cleavage is 0.09.

In the case of GGCAUAGCUCAACACAGCGUUGCAAAGUGGCUGUGGCUAGACCGCC [G5U G21U U43C], the self-cleavage was 0.08.

As for GGCAUAGCUCAACACAGCAUGGAAAAGUGGCUGUAGCUAGACUGCC [G5U G19A C23A G35A], the self-cleavage turned out to be 0.05.

As to GGCAUAGCUCAACACAGGGUGGCAAAGUGACGGUGUCUAGACUGCC [G5U C18G G30A U32G G36U], the self-cleavage was 0.02.

Take GGCAUAUCUCGGCACAGCGUGGCAAAGUGGCUGUGGCUAGACUGCC [G5U G7U A11G A12G]: the self-cleavage stood at 0.01.

In the case of GGCAUAGCUCAACACACCGUGACAAAGUCGCUGUGGCUAGACUGCC [G5U G17C G22A G29C], the self-cleavage was found to be 0.03.

On to GGCAUAGCUCAACACAGAGUGGCAAACUGGCUGUGGCUAAACUGCC [G5U C18A G27C G40A], for which the self-cleavage was determined as 0.07.

Regarding GGCAUAGCUCAAUACAGCGUGGCAAAGUGGAUCUGGCUAGGCUGCC [G5U C13U C31A G33C A41G], the self-cleavage amounted to 0.04.

With GGCAUAGCUCAACACAGCGUGGCAAAGUGGCUGUGGCUAGAGUGAC [G5U C42G C45A], the self-cleavage was 0.

Consider GGCAUAGCUCAAGACAGCGAGGCAAAGUGGCUGUGGCUAGACUGCC [G5U C13G U20A], for which the self-cleavage is 0.01.

As for GGCAUAGCUCAACACAGCGUGGAAAAGUGGCUGUGGCUAGACUGCU [G5U C23A C46U], the self-cleavage came out at 0.11.

For the variant GGCAUAACUCAACACAGCGUGGCAAAGUGUCUGUGGCUAGACUGCC [G5U G7A G30U], the self-cleavage is 0.08.

As for GGCAUAGCUCAACACAGCGUAGUUAAGAGGCUGUGUCUAGACUGCC [G5U G21A C23U A24U U28A G36U], the self-cleavage came out at 0.01.

For GGCAUAGCUCAACACAGCGUGGCAAAGUGGUUGUGGCUAACCUGCC [G5U C31U G40A A41C], the self-cleavage came out at 0.01.

For GGCAUAGCUCAACACAUAGUAGCAAAGUGGCUGAGGCUAGACUGCC [G5U G17U C18A G21A U34A], the self-cleavage worked out at 0.03.

In the case of GGCAUAGCUCAACACAGCGUUGCUAAGUGGCUGUGGCUAGACUGCC [G5U G21U A24U], the self-cleavage turned out to be 0.03.

Take GGCAUAUCUCACCACAGCGUGGCACAGUGGCUGUGGCUAGACUGCC [G5U G7U A12C A25C]: the self-cleavage came out at 0.02.

For the variant GGCAUAGCUCAAGACAGCGUGGCAAAGUGGCUUUUGCUAGACUGCC [G5U C13G G33U G35U], the self-cleavage amounted to 0.09.

Take GGCAUAUCUCCACACAGCAUGGCAAAGUGGCUGUGGAUAGACUGCC [G5U G7U A11C G19A C37A]: the self-cleavage was determined as 0.02.

As to GGCAUAGCUCAACACAGCGUGACCUAGUGGCGGUGGCUUGACUGCC [G5U G22A A24C A25U U32G A39U], the self-cleavage was determined as 0.28.

Turning to GGCAUAGCUCAACACACAGUGGCAAAGUGGAUGUGGCUAGACUCCC [G5U G17C C18A C31A G44C], the self-cleavage is 0.
